Results published in the supplement of paper PMC11417369.
The list shows a part of the results.

Test system: PfHDP1 homeodomain (GST-tagged)
Experiment: gcPBM binding intensity (ln(normalized median fluorescence intensity)); higher = stronger DNA binding
Procedure, shortened: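 Probes on an Agilent 4 × 180k array were primer-extended, double-stranded and 36 bp long, taken from intergenic genomic regions, with negative controls added. GST-tagged P. falciparum DNA-binding domains from E. coli, about 25 μg on average, were applied to the array for 1 h in 1× PBS containing 1% milk, 0.2 mg/ml BSA, 0.5% salmon testes DNA and 0.03% Triton X-100. Binding intensity, obtained after Alexa488 anti-GST antibody detection and a 488 nm scan, is the highest Masliner-normalised natural-log median intensity across replicate spots of either probe orientation.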

| Sequence | gcPBM binding intensity (ln) |
| --- | --- |
| AAAAAAAAATAAAAATGTACATATATAATATTATAT [XGTACX_site71] | 6.95 |
| AAAAAATGGCTAGTTTGTACACAAAAGTTATTGCAT [XGTACX_site5381] | 6.32 |
| ATATAATATACTTATTGTACTTATTTAAAATACTAA [XGTACX_site4266] | 6.18 |
| AAGATAAAATTATGCACACATACGAATAATTTTAAA [CACACA_site1705] | 10.1 |
| TTTCTCAATTCTTAGAGTACATAAATAAAAAAAAAA [XGTACX_site7639] | 6.21 |
| CATATATATAAATACACACACACACCCCTTATAATT [CACACA_site4064] | 7.18 |
| TAGGAGCCGAAACACACACACAAAAAAAAAAAAAAA [CACACA_site1731] | 6.36 |
| TTTTACAATAACAATACACACTATAATATATATATA [CACACA_site4893] | 8.26 |
| AAAAGAATTTGAAGTCGTACAATATCTATTATATGA [XGTACX_site8275] | 6.25 |
| TGCATTTTCCTATTTGCATGCAATTAAAATATAGAA [TGCATGCA_site862] | 7.44 |
| GATTATTTAAAATATACATGCGCGCACATATGCATA [TGCATGCA_site630] | 7.74 |
| AACATATATACAGTAACACACACAAAAAAATATGAA [CACACA_site9323] | 7 |
| ATGTTTTAATGAGGTTTGCACTATATTTTAATGAAC | 8.81 |
| TTAACTTTTATATAGTGTACAAATAAATGCATACAG [XGTACX_site5958] | 6.86 |
| TTATTATTTAACATGTGGACACAAAAATTTAAGGGT [XGTACX_site4638] | 6.75 |
| AAAAAACAAAAACACACACACACATATATATATATA [CACACA_site3654] | 9.16 |
| ATCACTAACATGTGTTGTACATAAAATTTGTTTGTT [XGTACX_site2207] | 6.57 |
| TGAACACAGACAAATACACACAAAAAAAATAAATAA [CACACA_site4298] | 6.62 |
| TATTATGTATAAAGAAGTACTTTTTTTTTTTTTTTC [XGTACX_site201] | 5.82 |
| TGCAAATTTAACAAAAAAAAAAAAAAAAAAAAAAAA [GTGCAC_negctrl_site64] | 6.38 |
| TCTACTACTTAATGGAGTACTAGCTTCATAATATTA [XGTACX_site7030] | 5.97 |
| TTTGAAATGATATATAAACACACATATATATATATA [CACACA_site9170] | 9.18 |
| CTAACAACCAAACGCACACACACAAAAAAAAAAATA [CACACA_site400] | 7.71 |

| Sequence | gcPBM binding intensity (ln) |
| --- | --- |
| AACAACTATTAATTTACACACATGTATATATCTTAC [CACACA_site7459] | 6.83 |
| TATTAAAAGGTGAGTACACACATATATGCGTATATA [CACACA_site2102] | 6.65 |
| ATATTGAATTCCAACACATGCAAAACTTTCGGTTTT [TGCATGCA_site485] | 6.88 |
| TATTTTACACATTTACGTACATAAATATATATATAT [XGTACX_site8788] | 8.72 |
| AGACATTTTTAAGCAAAACATTCATCATCTTATAAT [CACACA_negctrl_site1539] | 6.51 |
| TACGCACAAAAATATACACACACACCGATATATTTA [CACACA_site9213] | 7.51 |
| TACATATATATTTGTTCACACACACCCAAAAAAAAA [CACACA_site8788] | 6.97 |
| TCTATGTAGTTTTTATGTACTAAATAAATAAATAAA [XGTACX_site2599] | 6.29 |
| TAGAAGCAGAAACACACACACATACATACACATACA [CACACA_site1467] | 6.92 |
| ACTATTAACAGTGTAGTGCAAAAAGGTTAATTATTA | 9.67 |
| TAAATGTCCTTATTTGCACACACACCGATAAGAAAT [CACACA_site5723] | 10 |
| GCATTCATTTTTAATACACACAAAAAAAAAATAAAA [CACACA_site2408] | 6.64 |
| TTTTCAATATATATTTGTACTTTATTTTATGATATT [GTGCAC_negctrl_site732] | 6.71 |
| GTGATACGCTATAGGACACACGCTTAATAATTATAA [CACACA_site1694] | 6.21 |
| AAATTGTCAAAACACGCACACACATATACATAATAA [CACACA_site1743] | 7.31 |
| ATCATAAATTATTATACACACAATACGTGACCTATT [CACACA_site1906] | 7.12 |
| TTCTTTTATAAAAGTAGTACAATTATATTGTAATTA [XGTACX_site2855] | 6.23 |
| TCTTTTATATTGTAGAGTACATATTTTCAATATATA [XGTACX_site5586] | 6.17 |
| AAAAAAAAAAAAGGCACACAAACATATGTAGACATA [CACACA_site2284] | 6.61 |
| TCGTGTGTAATATTATATATATATATATAATATATA [TGCATGCA_negctrl_site289] | 7.48 |
| TTTTAAGGTGTGAAGGTGCAAAAAGGTAAATAGGAA | 10.3 |
| CACAAACACCCAAACACACACACACCGACATACATA [CACACA_site4410] | 6.87 |
